Reference: PubChem BioAssay (Tox21)
Several values for one entry are separate records, joined by “and”; a condition that tells them apart may be missing. Equal entries are not always repeated. The inconclusive results got no clear call from the source; some entries with a clear call stand among them for comparison. For part of these data: Where the call is inconclusive, the potency comes from a doubtful curve fit. Some compounds were tested as several samples or in several runs, with calls that do not always agree. Activity calls are given as the source filed them. Unless noted, calls come from the whole dose curve; as a rule, active = well fitted curve in the direction sought with a large enough effect in the repeat runs; inconclusive = weak or mixed curves; inactive = no such curve, though single readings can be large; an effect the other way counts as inactive or inconclusive.

What was measured:
[1] = qHTS assay to identify small molecule antagonists of the retinoid-related orphan receptor gamma (ROR-gamma) signaling pathway - cell viability counter screen (AID 1159520); details: Tet-on RORgamma CHO cells viability, ATP luminescence, 16 h; series mostly up to 92.4 µM; note: nearly all actives have a fitted effect of over 50% in size
How it was run: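 Tet-on ROR gamma CHO cells were given compounds for 2 hr, then doxycycline hyclate at 1 uM final, and incubated 16 hr at 37 C. Viability was measured as ATP content by CellTiter-Glo luminescence.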

[2] = target: Nuclear receptor ROR-gamma (Homo sapiens) (UniProt P51449); experiment: qHTS assay to identify small molecule antagonists of the retinoid-related orphan receptor gamma (ROR-gamma) signaling pathway (AID 1159521; note: nearly all actives have a fitted effect of over 50% in size); details: Tet-on RORgamma CHO cells, RORE-luciferase, 16 h; series mostly up to 92.4 µM
How it was run: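 Decreased RORE-driven luciferase luminescence indicates antagonism. Tet-on RORγ CHO cells received compound, then 1 uM final doxycycline 2 h later; signal read after 16 h incubation.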

[3] = qHTS assay to identify small molecule agonists of the AP-1 signaling pathway - cell viability counter screen (AID 1159525; calls by dose curve; note: nearly all actives have a fitted effect of over 55% in size); details: ME-180 AP-1-bla cells viability, ATP luminescence, 5 h; series mostly up to 76.8 µM
How it was run: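 Same-well cytotoxicity counter screen of the Tox21 10K library in ME-180 cells. The readout is ATP-dependent luminescence after 5 h compound treatment. Data are normalised to DMSO and tetra n-octyl ammonium bromide controls.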

[4] = qHTS assay to identify small molecule agonists of the AP-1 signaling pathway (AID 1159526; calls by dose curve; for activation: % is set by controls: 0 for no effect and ±100 for the full control effect); details: ME-180 (cervical carcinoma) AP-1-bla reporter, beta-lactamase FRET ratio, 5 h; activation: at 76.8 µM (top of the series) unless noted
[5] = target: Retinoic acid receptor RXR-alpha (Homo sapiens) (UniProt P19793); experiment: qHTS assay to identify small molecule agonists of the RXR signaling pathway (AID 1159527; calls by dose curve; note: nearly all actives have a fitted effect of over 35% in size; for activation: % is set by controls: 0 for no effect and ±100 for the full control effect); details: HEK293T RXRa-UAS-bla, beta-lactamase ratio, 16 h; activation: at 76.8 µM (top of the series) unless noted
How it was run: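 16 hr incubation of compound-treated RXR-alpha-UAS-bla HEK 293T cells (2% charcoal-stripped FBS, 37 C) preceded a 2 hr room-temperature LiveBLAzer FRET substrate step and blue/green fluorescence measurement.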

[6] = qHTS assay to identify small molecule antagonists of the retinoid acid receptor (RAR) signaling pathway - cell viability counter screen (AID 1159551); details: C3RL4 cells viability, ATP luminescence (CellTiter-Glo), 6 h; series mostly up to 92.4 µM; note: nearly all actives have a fitted effect of over 35% in size
How it was run: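 ATP-based viability, C3RL4 cells, 6 h at 37 C with 1 uM final retinol co-added after compound; luminescence read 30 min post CellTiter-Glo, RT.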

[7] = qHTS assay to identify small molecule antagonists of the retinoic acid receptor (RAR) signaling pathway (AID 1159552; note: nearly all actives have a fitted effect of over 50% in size); details: C3RL4 RARE luciferase reporter, retinol-stimulated, 6 h; series mostly up to 92.4 µM
How it was run: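 C3RL4 RARE-luc cells, overnight plating; retinol 1 uM final added right after compound; 6 hr 37 C; luciferase read at 30 min RT.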

[8] = qHTS assay to identify small molecule agonists of the retinoic acid receptor (RAR) signaling pathway (AID 1159553); details: C3RL4 RARE luciferase reporter, agonist, 6 h; activation: at 73.3 µM (top of the series) unless noted; for activation: % is set by controls: 0 for no effect and ±100 for the full control effect
How it was run: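 Quantitative high-throughput format: the Tox21 10K library was tested on C3RL4 RARE-luciferase cells for 6 hr at 37 C and 5% CO2, with luminescence measured after a 30 min room-temperature reagent step.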

[9] = qHTS assay to identify small molecule antagonists of the estrogen related receptor (ERR) signaling pathway from Tox21 library - cell viability counter screen (AID 1224834); details: ERR reporter cells viability, CellTiter-Fluor, 17.5 h; series mostly up to 92.4 µM; note: nearly all actives have a fitted effect of over 30% in size
How it was run: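 Compounds in DMSO were pinned onto ERR cells that had been incubated for 6 h, and the plates were held at 37 C for 17.5 h. CellTiter-Fluor reagent was then added and fluorescence was measured after 30 min.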

[10] = qHTS assay to identify small molecule agonists of the endoplasmic reticulum stress response signaling pathway - cell viability counter screen (AID 1159517; calls by dose curve; note: nearly all actives have a fitted effect of over 50% in size); details: ESRE-bla HeLa viability, CellTiter-Glo luminescence, 5 h; series mostly up to 61 µM
How it was run: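 Steps: seed 1,500 ESRE-bla HeLa cells per well; incubate overnight at 37 C, 5% CO2; add compounds in DMSO for 5 hr; run FRET substrate 2 hr RT; add CellTiter-Glo, wait 30 min, read luminescence.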

[11] = qHTS assay to identify small molecule agonists of the RXR signaling pathway - cell viability counter screen (AID 1159529); details: RXR-alpha-bla HEK293T viability, CellTiter-Glo, 16 h; series mostly up to 76.8 µM; note: nearly all actives have a fitted effect of over 50% in size
How it was run: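 In this parallel viability measure, GeneBLAzer RXR-alpha HEK 293T cells (2% charcoal-stripped FBS) were given a 5 hr preincubation, treated with compounds 16 hr at 37 C, and read by CellTiter-Glo luminescence.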

[12] = target: Luciferin 4-monooxygenase (Photinus pyralis) (UniProt P08659); experiment: qHTS assay to identify small molecule inhibitors of firefly luciferase (AID 1224835); note: nearly all actives have a fitted effect of over 25% in size; details: purified P. pyralis luciferase, luminescence inhibition; series mostly up to 115 µM
How it was run: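 Biochemical qHTS: compounds run as interplate titrations against purified firefly enzyme, with D-luciferin and ATP each at its KM concentration. Light output recorded by CCD imaging.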

[13] = qHTS assay to identify small molecule antagonists of the constitutive androstane receptor (CAR) signaling pathway - cell viability counter screen (AID 1224837); details: HepG2-CYP2B6-hCAR viability, CellTiter-Fluor, 23 h, co-treated with 50 nM CITCO; series mostly up to 92.4 µM; note: nearly all actives have a fitted effect of over 45% in size
How it was run: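 Cells are seeded, rested 4 hr at 37 C/5% CO2, dosed with compound (15-point series) and 50 nM CITCO, incubated a further 23 hr, and then CellTiter-Fluor reagent is added before fluorescence is read. The line is HepG2 with stable hCAR and CYP2B6-2.2kb.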

[14] = qHTS assay to identify small molecule agonists of the constitutive androstane receptor (CAR) signaling pathway - cell viability counter screen (AID 1224836); details: HepG2-CYP2B6-hCAR viability, CellTiter-Fluor, 23 h, PK11195 added to every well; series mostly up to 92.4 µM; note: nearly all actives have a fitted effect of over 45% in size
How it was run: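 Using CellTiter-Fluor, viability of HepG2 cells harbouring hCAR and CYP2B6-2.2kb was measured following 23 h incubation with a 15-concentration compound series plus PK11195 (0.75 uM final).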
Potency is the fitted concentration of half-maximal effect; tags give direction and shape of the fitted curve or compound fluorescence and quenching.

Sequence of UniProt P19793 (P19793 whole entry, looked up): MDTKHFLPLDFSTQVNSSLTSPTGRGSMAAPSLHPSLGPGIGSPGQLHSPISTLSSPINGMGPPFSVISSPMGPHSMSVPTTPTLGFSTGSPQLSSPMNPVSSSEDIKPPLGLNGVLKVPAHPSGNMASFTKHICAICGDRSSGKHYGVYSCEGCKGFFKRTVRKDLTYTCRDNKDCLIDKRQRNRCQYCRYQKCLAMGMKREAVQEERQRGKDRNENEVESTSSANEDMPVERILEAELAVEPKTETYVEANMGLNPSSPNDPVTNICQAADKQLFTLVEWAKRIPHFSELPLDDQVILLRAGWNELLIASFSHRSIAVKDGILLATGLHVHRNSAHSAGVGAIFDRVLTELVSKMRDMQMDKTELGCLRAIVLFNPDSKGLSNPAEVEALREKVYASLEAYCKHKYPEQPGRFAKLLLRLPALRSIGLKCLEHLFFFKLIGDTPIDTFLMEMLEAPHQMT
Sequence of UniProt P08659 (P08659 whole entry, looked up): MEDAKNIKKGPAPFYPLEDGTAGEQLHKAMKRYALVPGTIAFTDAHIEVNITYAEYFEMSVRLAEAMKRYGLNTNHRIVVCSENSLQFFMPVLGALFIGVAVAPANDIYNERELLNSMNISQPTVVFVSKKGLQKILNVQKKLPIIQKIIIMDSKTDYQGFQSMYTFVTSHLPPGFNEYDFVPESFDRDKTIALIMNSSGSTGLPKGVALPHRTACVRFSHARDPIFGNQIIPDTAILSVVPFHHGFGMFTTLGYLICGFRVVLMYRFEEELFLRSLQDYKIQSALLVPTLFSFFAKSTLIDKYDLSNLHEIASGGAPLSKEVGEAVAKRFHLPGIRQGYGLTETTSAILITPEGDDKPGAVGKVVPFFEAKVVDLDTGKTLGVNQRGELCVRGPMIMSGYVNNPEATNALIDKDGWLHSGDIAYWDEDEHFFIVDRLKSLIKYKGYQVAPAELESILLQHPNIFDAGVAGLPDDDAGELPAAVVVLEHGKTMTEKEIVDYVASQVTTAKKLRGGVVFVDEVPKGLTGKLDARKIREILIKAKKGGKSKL

## CC1CCC(C(C)C)C(OC(=O)c2ccccc2N)C1 (configuration not stated)
[1]
  Potency: active: 53.7 µM
[2]
  Potency: inconclusive: 53.7 µM [inhibitor]
[3]
  Potency: active: 38.4 µM
[4]
  Potency: inconclusive: 38.4 µM [falling, partial curve]
[5]
  Potency: inconclusive: 34.2 µM [cytotoxic, partial curve]
[6]
  Potency: inconclusive: 60.3 µM [cytotoxic, partial curve]
[7]
  Potency: inconclusive: 19.1 µM [inhibitor, partial curve, poor fit]
[8]
  Potency: inconclusive: 47.9 µM [inhibitor, partial curve]
[9]
  Potency: inconclusive: 67.6 µM [cytotoxic, single point]

## O=S1(=O)OC(c2cc(Br)c(O)c(Br)c2)(c2cc(Br)c(O)c(Br)c2)c2ccccc21
[10]
  Potency: inconclusive: 11.3 µM [cytotoxic, full curve, poor fit]
[5]
  Potency: inconclusive: 17.9 µM [activator, partial curve]
[11]
  Potency: inactive
[6]
  Potency: active: 19.9 µM
[8]
  Potency: inconclusive: 35.3 µM [inhibitor, partial curve]
[12]
  Potency: active: 10.3 µM

## CC(C)[C@@H](C(=O)O[C@@H](C#N)c1cccc(Oc2ccccc2)c1)c1ccc(Cl)cc1
[1]
  Potency: inconclusive: 17.5 µM [cytotoxic, partial curve, poor fit] and inactive
[2]
  Potency: active: 17.5 µM and inconclusive: 77 µM [inhibitor, single point]
[5]
  Potency: inconclusive: 62.6 µM [falling, partial curve, poor fit]
  activation: inconclusive: -17.6%
[11]
  Potency: inactive

## NNC(N)=S
[10]
  Potency: inconclusive: 64.1 µM [cytotoxic, single point]
[11]
  Potency: active: 18.1 µM and inconclusive: 21.9 µM [cytotoxic, partial curve]
[8]
  Potency: inconclusive: 79.9 µM [inhibitor] and inconclusive: 77 µM [inhibitor, single point]
[9]
  Potency: inconclusive: 68.6 µM [cytotoxic, single point]
[13]
  Potency: inconclusive: 61.1 µM [cytotoxic]

## c1ccc2c(c1)Sc1ccccc1N2CC1CN2CCC1CC2 (configuration not stated)
[1]
  Potency: inconclusive: 33.5 µM [cytotoxic, partial curve, poor fit]
[2]
  Potency: inconclusive: 33.5 µM [inhibitor, partial curve, poor fit]
[4]
  activation: inconclusive: 24.9% [at 35.3 µM]
[5]
  Potency: inconclusive: 12 µM [inhibitor, partial curve, poor fit]
[7]
  Potency: active: 29.8 µM
[8]
  Potency: inconclusive: 23.7 µM [inhibitor, partial curve]
[9]
  Potency: active: 29.8 µM
[13]
  Potency: inconclusive: 29.8 µM [cytotoxic]

## O=C/C=C/c1ccccc1
[10]
  Potency: inactive
[5]
  activation: inconclusive: -2.03%
[8]
  Potency: active: 34.4 µM

## c1ccc(C2CC2)c(OCC2=NCCN2)c1
[10]
  Potency: inconclusive: 1.07 µM [cytotoxic, single point]
[11]
  Potency: inactive
[7]
  Potency: inactive
[8]
  Potency: inactive
[14]
  Potency: inconclusive: 0.106 µM [rising, partial curve]

## Cc1ccc(N)c(N)c1
[10]
  Potency: inactive
[5]
  Potency: inconclusive: 6.18 µM [activator, partial curve, poor fit] and inconclusive: 54.9 µM [inhibitor]
[8]
  Potency: active: 1.54 µM and active: 1.22 µM
[9]
  Potency: inconclusive: 61.3 µM [cytotoxic, single point] and inconclusive: 77 µM [cytotoxic, single point]
[12]
  Potency: active: 15.9 µM and active: 2.52 µM

## Cc1cccc(C)c1NC(=O)CN1CCCC1=O
[1]
  Potency: inactive

## O=P(Oc1ccccc1)(Oc1ccccc1)Oc1ccccc1
[10]
  Potency: inconclusive: 27.4 µM [cytotoxic, full curve, poor fit]
[11]
  Potency: inconclusive: 21.8 µM [cytotoxic, partial curve, poor fit] and inconclusive: 6.92 µM [cytotoxic, partial curve, poor fit]
[9]
  Potency: inconclusive: 24.2 µM [cytotoxic, full curve] and inconclusive: 15.4 µM [cytotoxic, full curve]

## CC(c1ccc(O)cc1)(c1ccc(O)cc1)c1ccc(O)cc1
[1]
  Potency: inactive
[2]
  Potency: inconclusive: 30.6 µM [inhibitor, single point]
[3]
  Potency: inconclusive: 15.5 µM [cytotoxic, full curve]
[4]
  Potency: inconclusive: 5.49 µM [activator, full curve]
[11]
  Potency: inconclusive: 15.5 µM [rising, partial curve, poor fit]
[9]
  Potency: inconclusive: 54.5 µM [cytotoxic, partial curve]
[14]
  Potency: inactive
